# Data reported in the supplement of paper PMC9588766.
# Where a name gives a salt, the structure may show the parent alone. The full ranking holds about 1,900 compounds; the median of “cell viability of compound + 1 nM pemigatinib relative to pemigatinib-only (DMSO) wells” is about 0.95, and the lowest 2% start at about 0.22. Some of the results follow.
# Test system: PDC-DUC18828
# Assay: cell viability of compound + 1 nM pemigatinib relative to pemigatinib-only (DMSO) wells (fraction); PDC-DUC18828 is a patient-derived cholangiocarcinoma cell line; higher = less growth inhibition
# Conditions: first compound 1 µM; pemigatinib concentration 1 nM; 72 h
# Experimental: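 Selleck Bioactive library screen in the patient-derived FGFR2 fusion-positive ICC cell line PDC-DUC18828 (500 cells/well). Each compound was tested at 1 uM with 1 nM pemigatinib, in triplicate, for 72 h. Viability was read by CellTiter-Glo and normalised to plate DMSO controls. Value is the paper's averaged normalised viability.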
row,Structure (SMILES),cell viability
1,COc1cc(-c2cc(-c3cccc(O)c3)cnc2N)cc(OC)c1OC + CCN1C(=O)N(c2c(F)c(OC)cc(OC)c2F)Cc2cnc3[nH]c(CN4CCOCC4)cc3c21 [pemigatinib],0.969
2,O=C(O)c1ccc(O)c2ncccc12 + CCN1C(=O)N(c2c(F)c(OC)cc(OC)c2F)Cc2cnc3[nH]c(CN4CCOCC4)cc3c21 [pemigatinib],1.07
3,COc1cc2ncnc(Nc3ccc(O)c(Br)c3)c2cc1OC + CCN1C(=O)N(c2c(F)c(OC)cc(OC)c2F)Cc2cnc3[nH]c(CN4CCOCC4)cc3c21 [pemigatinib],0.787
4,CO[C@H]1C[C@@H]2CC[C@@H](C)[C@@](O)(O2)C(=O)C(=O)N2CCCC[C@H]2C(=O)O[C@H]([C@H](C)C[C@@H]2CC[C@H](n3cnnn3)[C@H](OC)C2)CC(=O)[C@H](C)/C=C(\C)[C@@H](O)[C@@H](OC)C(=O)[C@H](C)C[C@H](C)/C=C/C=C/C=C/1C [Zotarolimus(ABT-578)] + CCN1C(=O)N(c2c(F)c(OC)cc(OC)c2F)Cc2cnc3[nH]c(CN4CCOCC4)cc3c21 [pemigatinib],0.546
5,CCCC(=O)Nc1cccc(NC(=O)c2ccccc2Br)c1 + CCN1C(=O)N(c2c(F)c(OC)cc(OC)c2F)Cc2cnc3[nH]c(CN4CCOCC4)cc3c21 [pemigatinib],0.822
6,C=C1[C@H](CO)[C@@H](O)C[C@@H]1n1cnc2c(=O)[nH]c(N)nc21 [Entecavir Hydrate] + CCN1C(=O)N(c2c(F)c(OC)cc(OC)c2F)Cc2cnc3[nH]c(CN4CCOCC4)cc3c21 [pemigatinib],0.916
7,CC(=O)O[C@]1(C(C)=O)CC[C@H]2[C@@H]3C=C(C)C4=CC(=O)CC[C@]4(C)[C@H]3CC[C@@]21C [Megestrol Acetate] + CCN1C(=O)N(c2c(F)c(OC)cc(OC)c2F)Cc2cnc3[nH]c(CN4CCOCC4)cc3c21 [pemigatinib],0.902
8,CN(C)C(=O)c1cc2cnc(Nc3ccc(N4CCNCC4)cn3)nc2n1C1CCCC1 + CCN1C(=O)N(c2c(F)c(OC)cc(OC)c2F)Cc2cnc3[nH]c(CN4CCOCC4)cc3c21 [pemigatinib],0.99
9,CN1CCN(c2ccc(Nc3cc(-c4cccc(-n5ccc6cc(C7CC7)cc(F)c6c5=O)c4CO)cn(C)c3=O)nc2)CC1 + CCN1C(=O)N(c2c(F)c(OC)cc(OC)c2F)Cc2cnc3[nH]c(CN4CCOCC4)cc3c21 [pemigatinib],0.915
10,Oc1cc(O)cc(/C=C/c2ccc(O)c(O)c2)c1 [Piceatannol] + CCN1C(=O)N(c2c(F)c(OC)cc(OC)c2F)Cc2cnc3[nH]c(CN4CCOCC4)cc3c21 [pemigatinib],0.863
11,O=C(NC1CC1)c1cc(-c2cccs2)on1 [Isoxazole 9 (ISX-9)] + CCN1C(=O)N(c2c(F)c(OC)cc(OC)c2F)Cc2cnc3[nH]c(CN4CCOCC4)cc3c21 [pemigatinib],1.01
12,Nc1nc(=O)[nH]cc1F [Flucytosine] + CCN1C(=O)N(c2c(F)c(OC)cc(OC)c2F)Cc2cnc3[nH]c(CN4CCOCC4)cc3c21 [pemigatinib],0.95
13,CC[C@@]1(O)C(=O)OCc2c1cc1n(c2=O)Cc2cc3c(CN(C)C)c(O)ccc3nc2-1 [Topotecan HCl] + CCN1C(=O)N(c2c(F)c(OC)cc(OC)c2F)Cc2cnc3[nH]c(CN4CCOCC4)cc3c21 [pemigatinib],0.0983
14,Nc1nnc(-c2cccc(Cl)c2Cl)c(N)n1 [Lamotrigine] + CCN1C(=O)N(c2c(F)c(OC)cc(OC)c2F)Cc2cnc3[nH]c(CN4CCOCC4)cc3c21 [pemigatinib],0.867
15,CCOC(=O)N[C@@H]1CC[C@@H]2[C@@H](C1)C[C@H]1C(=O)O[C@H](C)[C@H]1[C@H]2/C=C/c1ccc(-c2cccc(F)c2)cn1 [Vorapaxar] + CCN1C(=O)N(c2c(F)c(OC)cc(OC)c2F)Cc2cnc3[nH]c(CN4CCOCC4)cc3c21 [pemigatinib],0.932
16,Cc1cc(Nc2cc(CN3CCOCC3)c3nc(C)c(Cc4ccc(Cl)cc4F)n3n2)n[nH]1 + CCN1C(=O)N(c2c(F)c(OC)cc(OC)c2F)Cc2cnc3[nH]c(CN4CCOCC4)cc3c21 [pemigatinib],0.361
17,Cn1sc(=O)n(Cc2ccccc2)c1=O + CCN1C(=O)N(c2c(F)c(OC)cc(OC)c2F)Cc2cnc3[nH]c(CN4CCOCC4)cc3c21 [pemigatinib],0.896
18,COc1ccc2cc3[n+](cc2c1OC)CCc1cc2c(cc1-3)OCO2 [Berberine HCl] + CCN1C(=O)N(c2c(F)c(OC)cc(OC)c2F)Cc2cnc3[nH]c(CN4CCOCC4)cc3c21 [pemigatinib],0.879
19,"COc1cc2c(cc1Cc1cccc(Cl)c1F)c(=O)c(C(=O)O)cn2[C@H](CO)C(C)C [Elvitegravir (GS-9137, JTK-303)] + CCN1C(=O)N(c2c(F)c(OC)cc(OC)c2F)Cc2cnc3[nH]c(CN4CCOCC4)cc3c21 [pemigatinib]",0.99

row,Structure (SMILES),cell viability
1,COc1ccc2c(c1)c(CC(=O)OCC(=O)O)c(C)n2C(=O)c1ccc(Cl)cc1 [Acemetacin] + CCN1C(=O)N(c2c(F)c(OC)cc(OC)c2F)Cc2cnc3[nH]c(CN4CCOCC4)cc3c21 [pemigatinib],0.944
2,CC(=O)NC[C@H]1CN(c2ccc(N3CCOCC3)c(F)c2)C(=O)O1 [Linezolid] + CCN1C(=O)N(c2c(F)c(OC)cc(OC)c2F)Cc2cnc3[nH]c(CN4CCOCC4)cc3c21 [pemigatinib],1
3,Cc1nccn1CC1CCc2c(c3ccccc3n2C)C1=O (configuration not stated) [Ondansetron HCl] + CCN1C(=O)N(c2c(F)c(OC)cc(OC)c2F)Cc2cnc3[nH]c(CN4CCOCC4)cc3c21 [pemigatinib],0.979
4,CC1=C(C(=O)O)N2C(=O)[C@@H](NC(=O)[C@H](N)c3ccccc3)[C@H]2SC1 [Cephalexin] + CCN1C(=O)N(c2c(F)c(OC)cc(OC)c2F)Cc2cnc3[nH]c(CN4CCOCC4)cc3c21 [pemigatinib],0.952
5,CC[C@H](C)C(=O)O[C@H]1C[C@H](O)C=C2C=C[C@H](C)[C@H](CC[C@@H](O)C[C@@H](O)CC(=O)O)[C@H]21 [Pravastatin sodium] + CCN1C(=O)N(c2c(F)c(OC)cc(OC)c2F)Cc2cnc3[nH]c(CN4CCOCC4)cc3c21 [pemigatinib],0.911
6,CC(C)(C)OC(=O)Nc1ccc(-c2cc(C(=O)NCCCCCCC(=O)NO)no2)cc1 + CCN1C(=O)N(c2c(F)c(OC)cc(OC)c2F)Cc2cnc3[nH]c(CN4CCOCC4)cc3c21 [pemigatinib],0.459
7,COc1cc(-c2cc(-c3ccc(N4CCNCC4)cc3)cnc2C)cc(OC)c1OC + CCN1C(=O)N(c2c(F)c(OC)cc(OC)c2F)Cc2cnc3[nH]c(CN4CCOCC4)cc3c21 [pemigatinib],0.955
8,Nc1ccccc1NC(=O)c1ccc(CNc2nccc(-c3cccnc3)n2)cc1 [Mocetinostat (MGCD0103)] + CCN1C(=O)N(c2c(F)c(OC)cc(OC)c2F)Cc2cnc3[nH]c(CN4CCOCC4)cc3c21 [pemigatinib],0.721
9,Cc1ccc(S(=O)(=O)/C=C/C#N)cc1 + CCN1C(=O)N(c2c(F)c(OC)cc(OC)c2F)Cc2cnc3[nH]c(CN4CCOCC4)cc3c21 [pemigatinib],0.844
10,Cc1ccc(C(=O)C(C)CN2CCCCC2)cc1 (configuration not stated) [Tolperisone HCl] + CCN1C(=O)N(c2c(F)c(OC)cc(OC)c2F)Cc2cnc3[nH]c(CN4CCOCC4)cc3c21 [pemigatinib],1.02
11,CNCC[C@@H](Oc1ccccc1C)c1ccccc1 [Atomoxetine HCl] + CCN1C(=O)N(c2c(F)c(OC)cc(OC)c2F)Cc2cnc3[nH]c(CN4CCOCC4)cc3c21 [pemigatinib],0.904
12,Cc1cc(Nc2ncc(Cl)c(Nc3ccccc3S(=O)(=O)C(C)C)n2)c(OC(C)C)cc1C1CCNCC1 + CCN1C(=O)N(c2c(F)c(OC)cc(OC)c2F)Cc2cnc3[nH]c(CN4CCOCC4)cc3c21 [pemigatinib],0.889
13,O=C(O)Cc1cc(I)c(Oc2ccc(O)c(I)c2)c(I)c1 [Tiratricol] + CCN1C(=O)N(c2c(F)c(OC)cc(OC)c2F)Cc2cnc3[nH]c(CN4CCOCC4)cc3c21 [pemigatinib],0.979
14,CCC(CC)(NC(=O)C(C)C)C(=O)N[C@@H](CCCN=C(N)N)C(=O)NC1(C(=O)NC(c2ccc(F)cc2)c2ccc(F)cc2)CCCC1 + CCN1C(=O)N(c2c(F)c(OC)cc(OC)c2F)Cc2cnc3[nH]c(CN4CCOCC4)cc3c21 [pemigatinib],0.994
15,C[C@@H](Oc1cc(-c2cnn(C3CCNCC3)c2)cnc1N)c1c(Cl)ccc(F)c1Cl + CCN1C(=O)N(c2c(F)c(OC)cc(OC)c2F)Cc2cnc3[nH]c(CN4CCOCC4)cc3c21 [pemigatinib],0.821
16,CC(=O)/N=c1/sc(S(N)(=O)=O)nn1C [Methazolamide] + CCN1C(=O)N(c2c(F)c(OC)cc(OC)c2F)Cc2cnc3[nH]c(CN4CCOCC4)cc3c21 [pemigatinib],0.923
17,CC1=CC(=O)c2ccccc2C1=O [Menadione] + CCN1C(=O)N(c2c(F)c(OC)cc(OC)c2F)Cc2cnc3[nH]c(CN4CCOCC4)cc3c21 [pemigatinib],1.02
18,COCCCOc1cc(C[C@@H](C[C@H](N)[C@@H](O)C[C@H](C(=O)NCC(C)(C)C(N)=O)C(C)C)C(C)C)ccc1OC [Aliskiren Hemifumarate] + CCN1C(=O)N(c2c(F)c(OC)cc(OC)c2F)Cc2cnc3[nH]c(CN4CCOCC4)cc3c21 [pemigatinib],1.03
